Measurements taken from paper PMC8113725, “Structure–activity relationship of ipglycermide binding to phosphoglycerate mutases” (The Journal of Biological Chemistry, 2021).
Bridge positions count the residues as written; N and C are the ends. Square brackets hold non-standard residues; d marks the D form. Peptide text beside a SMILES is read from it. Nva = CCC[C@H](N)C(=O)O; Abu = CC[C@H](N)C(=O)O

Key:
C. elegans iPGM = C. elegans iPGM (Caenorhabditis elegans, UniProt G5EFZ1); assay: PGM enzyme assay (enolase–pyruvate kinase coupled, Kinase-Glo Plus end point) and IC50 determination; type: biochemical; conditions: IC50 (M), Supplemental Figure 5, 1st row pair; enzyme not given, inferred from match with Table 4a
B. malayi iPGM = B. malayi iPGM (Brugia malayi, UniProt Q4VWF8); assay: biochemical; conditions: IC50 (M), Supplemental Figure 5, 2nd row pair; enzyme not given, inferred from match with Table 4a
O. volvulus iPGM = O. volvulus iPGM (Onchocerca volvulus, UniProt I6LDA6); assay: biochemical; conditions: IC50 (M), Supplemental Figure 5, 3rd row pair; enzyme not given, inferred from match with Table 4a
E. coli iPGM = E. coli iPGM (Escherichia coli, UniProt P37689); assay: biochemical; conditions: IC50 (M), Supplemental Figure 5, 5th row pair; enzyme not given, inferred from match with Table 4a
UniProt P37689, sequence (P37689 whole entry): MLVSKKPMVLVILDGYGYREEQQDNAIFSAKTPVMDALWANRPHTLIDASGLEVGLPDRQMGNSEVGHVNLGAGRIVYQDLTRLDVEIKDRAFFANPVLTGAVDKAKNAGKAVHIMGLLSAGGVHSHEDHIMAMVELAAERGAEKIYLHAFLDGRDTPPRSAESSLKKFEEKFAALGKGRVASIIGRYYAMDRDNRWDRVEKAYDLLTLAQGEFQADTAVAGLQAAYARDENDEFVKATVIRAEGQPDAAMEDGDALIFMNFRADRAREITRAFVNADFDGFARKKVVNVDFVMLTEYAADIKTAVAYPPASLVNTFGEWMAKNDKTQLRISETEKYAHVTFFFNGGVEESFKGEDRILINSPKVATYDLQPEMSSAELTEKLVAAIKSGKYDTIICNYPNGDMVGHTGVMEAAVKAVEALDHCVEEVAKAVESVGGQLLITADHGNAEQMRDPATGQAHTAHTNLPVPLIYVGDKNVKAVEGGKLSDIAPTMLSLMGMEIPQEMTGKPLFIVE

UniProt I6LDA6, sequence (I6LDA6 whole entry): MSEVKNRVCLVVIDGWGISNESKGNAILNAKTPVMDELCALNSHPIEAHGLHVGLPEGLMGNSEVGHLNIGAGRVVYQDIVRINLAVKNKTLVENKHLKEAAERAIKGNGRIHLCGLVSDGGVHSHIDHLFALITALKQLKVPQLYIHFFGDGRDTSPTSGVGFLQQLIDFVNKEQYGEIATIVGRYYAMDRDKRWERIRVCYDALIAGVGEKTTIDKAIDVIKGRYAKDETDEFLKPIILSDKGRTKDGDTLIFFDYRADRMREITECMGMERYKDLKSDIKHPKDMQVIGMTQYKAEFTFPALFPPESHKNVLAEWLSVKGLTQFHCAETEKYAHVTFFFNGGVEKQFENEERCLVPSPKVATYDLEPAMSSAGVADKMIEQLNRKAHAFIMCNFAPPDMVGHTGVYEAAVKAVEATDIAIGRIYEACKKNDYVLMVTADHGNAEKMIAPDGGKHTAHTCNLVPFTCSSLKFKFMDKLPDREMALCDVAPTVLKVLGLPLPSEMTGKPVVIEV
UniProt Q4VWF8, sequence (Q4VWF8 whole entry): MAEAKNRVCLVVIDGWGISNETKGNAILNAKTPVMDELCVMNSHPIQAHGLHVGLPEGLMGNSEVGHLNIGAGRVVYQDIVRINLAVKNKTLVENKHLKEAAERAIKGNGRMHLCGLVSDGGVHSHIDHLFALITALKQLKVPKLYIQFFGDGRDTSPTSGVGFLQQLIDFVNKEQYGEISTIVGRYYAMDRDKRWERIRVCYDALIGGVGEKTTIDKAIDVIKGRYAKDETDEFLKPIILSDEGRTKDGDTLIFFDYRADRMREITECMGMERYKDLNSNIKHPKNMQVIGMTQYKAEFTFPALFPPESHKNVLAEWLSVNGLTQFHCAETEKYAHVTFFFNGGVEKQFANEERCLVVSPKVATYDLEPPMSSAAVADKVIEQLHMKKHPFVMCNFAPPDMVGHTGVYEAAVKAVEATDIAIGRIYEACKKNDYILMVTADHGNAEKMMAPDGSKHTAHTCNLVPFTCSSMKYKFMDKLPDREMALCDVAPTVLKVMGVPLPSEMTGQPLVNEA

| SMILES | IC50 (C. elegans iPGM) [M] | IC50 (B. malayi iPGM) [M] | IC50 (O. volvulus iPGM) [M] | IC50 (E. coli iPGM) [M] |
| --- | --- | --- | --- | --- |
| CC(C)C[C@H](NC(=O)[C@H](Cc1ccc(O)cc1)NC(=O)[C@@H]1CSCC(=O)N[C@H](Cc2ccc(O)cc2)C(=O)N[C@@H](CC(=O)O)C(=O)N[C@@H](Cc2ccc(O)cc2)C(=O)N2CCC[C@H]2C(=O)NCC(=O)N[C@@H](CC(=O)O)C(=O)N[C@@H](Cc2ccccc2)C(=O)N1)C(=O)N[C@@H](Cc1ccc(O)cc1)C(=O)NCC(=O)N[C@H](C(=O)N[C@@H](CS)C(N)=O)[C@@H](C)O [Ce-2 Y7F] | 2.34e-09 | 1.23e-09 | 2.71e-09 | 6.38e-07 |
| CC[C@@H]1NC(=O)[C@@H](Cc2ccc(O)cc2)NC(=O)CSC[C@@H](C(=O)N[C@@H](Cc2ccc(O)cc2)C(=O)N[C@@H](CC(C)C)C(=O)N[C@@H](Cc2ccc(O)cc2)C(=O)NCC(=O)N[C@H](C(=O)N[C@@H](CS)C(N)=O)[C@@H](C)O)NC(=O)[C@H](Cc2ccc(O)cc2)NC(=O)[C@H](CC(=O)O)NC(=O)CNC(=O)[C@@H]2CCCN2C(=O)[C@H](Cc2ccc(O)cc2)NC1=O [Ce-2 D2Abu] ({CH2CO}-[dY][Abu]YPGDYCYLYGTC-NH2; thioether N-8) | 1.15e-09 | 2.2e-09 | 2.38e-09 | 5.83e-08 |
| CC(C)C[C@H](NC(=O)[C@H](Cc1ccc(O)cc1)NC(=O)[C@@H]1CSCC(=O)N[C@H](Cc2ccc(O)cc2)C(=O)N[C@@H](CC(=O)O)C(=O)N[C@@H](Cc2ccc(O)cc2)C(=O)N2CCC[C@H]2C(=O)NCC(=O)N[C@@H](CC(=O)O)C(=O)N[C@@H](Cc2ccc(O)cc2)C(=O)N1)C(=O)N[C@@H](Cc1ccc(O)cc1)C(=O)NCC(=O)N[C@@H](Cc1c[nH]cn1)C(=O)N[C@@H](CS)C(N)=O [Ce-2 T13H] | 2.07e-09 | 8.63e-09 | 3.61e-09 | 4.78e-06 |
| CC(C)C[C@H](NC(=O)[C@H](Cc1ccc(O)cc1)NC(=O)[C@@H]1CSCC(=O)N[C@H](Cc2ccc(O)cc2)C(=O)N[C@@H](CC(N)=O)C(=O)N[C@@H](Cc2ccc(O)cc2)C(=O)N2CCC[C@H]2C(=O)NCC(=O)N[C@@H](CC(=O)O)C(=O)N[C@@H](Cc2ccc(O)cc2)C(=O)N1)C(=O)N[C@@H](Cc1ccc(O)cc1)C(=O)NCC(=O)N[C@H](C(=O)N[C@@H](CS)C(N)=O)[C@@H](C)O [Ce-2 D2N] ({CH2CO}-[dY]NYPGDYCYLYGTC-NH2; thioether N-8) | 1.86e-09 | 2.64e-09 | 3.03e-09 | 1.97e-07 |
| CCC[C@@H]1NC(=O)[C@@H](Cc2ccc(O)cc2)NC(=O)CSC[C@@H](C(=O)N[C@@H](Cc2ccc(O)cc2)C(=O)N[C@@H](CC(C)C)C(=O)N[C@@H](Cc2ccc(O)cc2)C(=O)NCC(=O)N[C@H](C(=O)N[C@@H](CS)C(N)=O)[C@@H](C)O)NC(=O)[C@H](Cc2ccc(O)cc2)NC(=O)[C@H](CC(=O)O)NC(=O)CNC(=O)[C@@H]2CCCN2C(=O)[C@H](Cc2ccc(O)cc2)NC1=O [Ce-2 D2Nva] ({CH2CO}-[dY][Nva]YPGDYCYLYGTC-NH2; thioether N-8) | 1.22e-09 | 1.96e-09 | 2.28e-09 | 3.69e-07 |
| CC(C)C[C@H](NC(=O)[C@H](Cc1ccc(O)cc1)NC(=O)[C@@H]1CSCC(=O)N[C@H](Cc2ccc(O)cc2)C(=O)N[C@@H](CC(=O)O)C(=O)N[C@@H](Cc2ccc(O)cc2)C(=O)N2CCC[C@H]2C(=O)NCC(=O)N[C@@H](CC(=O)O)C(=O)N[C@@H](Cc2ccc(O)cc2)C(=O)N1)C(=O)N[C@@H](Cc1ccc(O)cc1)C(=O)NCC(=O)N[C@@H](CO)C(=O)N[C@@H](CS)C(N)=O [Ce-2 Thr13Ser] | 1.43e-09 | 5.43e-09 | 2.47e-09 | 9.93e-09 |
| CC(C)C[C@H](NC(=O)[C@H](Cc1ccccc1)NC(=O)[C@@H]1CSCC(=O)N[C@H](Cc2ccc(O)cc2)C(=O)N[C@@H](CC(=O)O)C(=O)N[C@@H](Cc2ccc(O)cc2)C(=O)N2CCC[C@H]2C(=O)NCC(=O)N[C@@H](CC(=O)O)C(=O)N[C@@H](Cc2ccc(O)cc2)C(=O)N1)C(=O)N[C@@H](Cc1ccc(O)cc1)C(=O)NCC(=O)N[C@H](C(=O)N[C@@H](CS)C(N)=O)[C@@H](C)O [Ce-2 Y9F] ({CH2CO}-[dY]DYPGDYCFLYGTC-NH2; thioether N-8) | 1.31e-09 | 3.53e-09 | 3.57e-09 | 5.14e-07 |
| CC(C)C[C@H](NC(=O)[C@H](Cc1ccc(O)cc1)NC(=O)[C@@H]1CSCC(=O)N[C@H](Cc2ccc(O)cc2)C(=O)N[C@@H](CC(=O)O)C(=O)N[C@@H](Cc2ccc(O)cc2)C(=O)N2CCC[C@H]2C(=O)NCC(=O)N[C@@H](CC(=O)O)C(=O)N[C@@H](Cc2ccc(O)cc2)C(=O)N1)C(=O)N[C@@H](Cc1ccc(O)cc1)C(=O)NCC(=O)NCC(=O)N[C@@H](CS)C(N)=O [Ce-2 T13G] | 1.05e-09 | 5.13e-10 | 1.2e-09 | 1.1e-07 |
| CC(C)C[C@H](NC(=O)[C@H](Cc1ccccc1)NC(=O)[C@@H]1CSCC(=O)N[C@H](Cc2ccc(O)cc2)C(=O)N[C@@H](CC(=O)O)C(=O)N[C@@H](Cc2ccc(O)cc2)C(=O)N2CCC[C@H]2C(=O)NCC(=O)N[C@@H](CC(=O)O)C(=O)N[C@@H](Cc2ccccc2)C(=O)N1)C(=O)N[C@@H](Cc1ccc(O)cc1)C(=O)NCC(=O)N[C@H](C(=O)N[C@@H](CS)C(N)=O)[C@@H](C)O [Ce-2 Y7F, Y9F] ({CH2CO}-[dY]DYPGDFCFLYGTC-NH2; thioether N-8) | 2.37e-09 | 2.41e-08 | 2.35e-08 | 3.58e-06 |
